The target of assay [1] is T1, SARS-CoV-2 NSP13 (Severe acute respiratory syndrome coronavirus 2, UniProt P0DTD1). As to conditions: read-out: IC50, unwinding activity; 3 nM NSP13, 1 mM ATP, 750 nM annealed DNA substrate, 10 min pre-incubation at RT.
Assay [2] concerns the target T1, SARS-CoV-2 NSP13. Briefly: NSP13 ATPase assay (absorbance-based, Biomol Green). The class given is biochemical. To be noted: 30 nM NSP13, 400 µM ATP, 30 min at RT.

One molecule from PMC12128885, “Myricetin-bound crystal structure of the SARS-CoV-2 helicase NSP13 facilitates the discovery of novel natural inhibitors” (Acta Crystallographica Section D: Structural Biology, 2025) can be followed below.

What is called IC50 is the concentration that inhibits the measured activity by half. As to `O=C(/C=C/c1ccc(O)c(O)c1)O[C@H](Cc1ccc(O)c(O)c1)C(=O)O` [Rosmarinic acid, (2R)-3-(3,4-Dihydroxyphenyl)-2-[(E)-3-(3,4-dihydroxyphenyl)prop-2-enoyl]oxypropanoic acid], on SARS-CoV-2 NSP13 [1], the IC50 was found to be 3.83 µM. Also, at SARS-CoV-2 NSP13 [2], the “IC50, ATPase activity” value is “No inhibition”.
